Source: PubChem BioAssay AID485344 (National Center for Advancing Translational Sciences (NCATS), 2010)
Hit rate of the full screen: of about 340,000 compounds, about 6,900 (2%) were called active. Rule as the data show it: active = inhibition above about 30%; inactive = below that, where a call was filed. The entries are a selection whose mix differs from that of the whole data set. Entries without a call were filed so in the source.

target: D(2) dopamine receptor (Homo sapiens) (UniProt P14416); test: HTS Assay for Allosteric Antagonists of the Human D2 Dopamine Receptor: Primary Screen for Antagonists; details: HEK293 TREx D2 cells, calcium flux, dopamine EC80; at 10 µM; stronger effect = higher value; also: 0% is about no effect
Chain of UniProt P14416 (P14416 whole entry, looked up): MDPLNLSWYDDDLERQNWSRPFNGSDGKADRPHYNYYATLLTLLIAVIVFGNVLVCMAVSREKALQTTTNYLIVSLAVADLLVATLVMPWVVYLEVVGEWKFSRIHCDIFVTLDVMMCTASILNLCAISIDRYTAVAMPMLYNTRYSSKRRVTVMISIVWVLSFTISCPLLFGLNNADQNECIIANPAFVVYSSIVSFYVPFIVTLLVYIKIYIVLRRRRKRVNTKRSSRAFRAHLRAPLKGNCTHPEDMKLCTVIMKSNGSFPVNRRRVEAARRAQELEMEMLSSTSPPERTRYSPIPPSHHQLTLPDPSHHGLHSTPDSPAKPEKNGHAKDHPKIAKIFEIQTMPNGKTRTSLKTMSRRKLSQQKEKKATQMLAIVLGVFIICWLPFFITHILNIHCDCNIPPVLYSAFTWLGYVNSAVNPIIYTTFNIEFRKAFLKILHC
Summary of the method: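 Antagonism is scored as inhibition of an EC80 dopamine-evoked calcium signal in a force-coupled, tetracycline-inducible HEK293 T-REx D2 line, with compound present 180 s before agonist.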

**Q.** `CCNCC(O)c1cccc(O)c1` (configuration not stated) was tested. Which inhibition did it give?
**A.** Its inhibition is active: 32.3%.

**Q.** `CCc1ccc(NC(=O)c2cccn(Cc3cccc([N+](=O)[O-])c3)c2=O)cc1` was tested. Which inhibition did it give?
**A.** Its inhibition is -16.7%.

**Q.** For `O=C1NC(=O)N(Cc2ccco2)C(=O)/C1=C/C=C/c1ccco1`, which inhibition is on record?
**A.** Its inhibition is active: 34.4%.

**Q.** `Cc1ccc(-n2c(/C=C/c3ccc(Br)s3)nc3ccccc3c2=O)cc1` was tested. Which inhibition did it give?
**A.** The inhibition was 13.5%.

**Q.** `O=c1c2ccccc2nc(/C=C/c2cccc3ccccc23)n1-c1ccccc1Cl` was tested. Which inhibition did it give?
**A.** The inhibition was -13.3%.

**Q.** `CCCN1CC[C@@H]2c3cc(O)ccc3CC[C@@H]21` was tested. Which inhibition did it give?
**A.** Its inhibition is active: 73%.

**Q.** For `COc1ccc(OC)c(NC(=O)Cn2cc(C(=O)c3ccccc3F)c3ccccc32)c1`, which inhibition is on record?
**A.** The inhibition was 1.63%.

**Q.** For `CCC1(c2ccccc2)C(=O)N(C)C(=O)N(C)C1=O`, which inhibition is on record?
**A.** The inhibition was active: 34%.

**Q.** Which inhibition does the source give for `O=c1[nH]c2ccccc2n1C1CCN(CCCC(c2ccc(F)cc2)c2ccc(F)cc2)CC1` here?
**A.** Its inhibition is active: 86.8%.

**Q.** For `Cc1ccc(-n2c(/C=C/c3ccc(Br)s3)nc3ccccc3c2=O)cc1C`, which inhibition is on record?
**A.** The inhibition was -5.6%.

**Q.** Which inhibition does the source give for `Cc1nnc(NC(=O)c2cccn(Cc3ccc(Cl)cc3)c2=O)s1` here?
**A.** The inhibition was -16.4%.

**Q.** Which inhibition does the source give for `CCN1CCN(Cc2cc(C(C)(C)C)c(O)c(C(C)(C)C)c2)CC1` here?
**A.** The inhibition was active: 45.9%.

**Q.** Which inhibition does the source give for `C=CCn1c(O)c(C(C)=NCCN2CCOCC2)c(=O)[nH]c1=O` here?
**A.** The inhibition was active: 39.5%.

**Q.** With `CCCCCCn1c(O)c(C=Nc2ccccc2N2CCOCC2)c(=O)[nH]c1=S` as the molecule, how does the inhibition read?
**A.** The inhibition was active: 36.8%.

**Q.** With `FC(F)(F)c1ccc2c(c1)N(CCCN1CCN(CCCl)CC1)c1ccccc1S2` as the molecule, how does the inhibition read?
**A.** The inhibition was active: 75.4%.

**Q.** For `COC(=O)C1=C(c2ccc(-c3ccccc3)c(F)c2)C[C@@H]2CC[C@H]1N2C(=O)NC1Cc2ccccc2C1`, which inhibition is on record?
**A.** The inhibition was active: 38.4%.

**Q.** How did the inhibition turn out when `Cc1cc(C)cc(-n2c(/C=C/c3cccc(F)c3)nc3ccccc3c2=O)c1` was run?
**A.** Its inhibition is -9.75%.

**Q.** For `COc1ccc(C(CNC(=O)c2ccc3c(c2)CCC3)N(C)C)cc1` (configuration not stated), which inhibition is on record?
**A.** Its inhibition is active: 79.5%.

**Q.** With `Cc1ccc(O)c(CN2CCN(c3ccccc3)CC2)c1` as the molecule, how does the inhibition read?
**A.** The inhibition was active: 38.4%.

**Q.** With `COc1ccc(C[C@@H]2c3cc(O)c(OC)cc3CCN2C)cc1O` as the molecule, how does the inhibition read?
**A.** Its inhibition is active: 51.9%.

**Q.** With `COc1ccc(NC(=O)CN2C(=O)C(C)N=C(c3ccccc3F)c3cc(Cl)ccc32)c(OC)c1` (configuration not stated) as the molecule, how does the inhibition read?
**A.** The inhibition was 9.75%.

**Q.** Which inhibition does the source give for `Cc1ccc(NC(=O)N(Cc2ccc3c(c2)OCO3)C2CCN(Cc3ccccc3)CC2)cc1F` here?
**A.** Its inhibition is -1.06%.

**Q.** With `OC(CN1CC=C(c2ccccc2)CC1)c1ccccc1` (configuration not stated) as the molecule, how does the inhibition read?
**A.** Its inhibition is active: 74.6%.

**Q.** For `O=C(Nc1ccon1)c1cccn(Cc2cccc(Cl)c2)c1=O`, which inhibition is on record?
**A.** Its inhibition is -13.6%.

**Q.** How did the inhibition turn out when `O=C(CN1CC=C(c2ccccc2)CC1)NC(=O)NCc1ccco1` was run?
**A.** Its inhibition is active: 39.6%.

**Q.** With `Cc1ccc2c(c1)C1CN(C)CCC1N2S(=O)(=O)c1ccccc1` (configuration not stated) as the molecule, how does the inhibition read?
**A.** Its inhibition is active: 44.4%.

**Q.** How did the inhibition turn out when `Cc1cccc(NC(=O)Cn2cc(C(=O)c3ccccc3)c3ccccc32)c1C` was run?
**A.** Its inhibition is 2.96%.

**Q.** With `O=c1[nH]c2ccccc2c(=O)n1-c1ccc(Cl)c(Cl)c1` as the molecule, how does the inhibition read?
**A.** Its inhibition is -1.36%.

**Q.** How did the inhibition turn out when `COc1ccccc1N1CCN(Cc2ccccc2Cl)CC1` was run?
**A.** The inhibition was active: 79.3%.

**Q.** With `Cc1oc(-c2ccc(Cl)cc2)nc1CN1C(=O)CN=C(c2ccccc2)c2ccccc21` as the molecule, how does the inhibition read?
**A.** Its inhibition is -19.6%.

**Q.** With `CN1CC[C@]2(c3cccc(O)c3)Cc3nc4ccccc4cc3C[C@H]2C1` as the molecule, how does the inhibition read?
**A.** Its inhibition is active: 40.5%.

**Q.** For `O=C(C[N+]12CCC(CC1)C(OC(=O)c1ccccc1)C2)c1ccc([N+](=O)[O-])cc1` (configuration not stated), which inhibition is on record?
**A.** Its inhibition is active: 33%.

**Q.** With `O=C1CC(c2ccc(Br)cc2)c2c(c3ccccc3oc2=O)O1` (configuration not stated) as the molecule, how does the inhibition read?
**A.** Its inhibition is 3.27%.

**Q.** With `O=S1(=O)N(CCN2CC=C(c3c[nH]c4cc(F)ccc34)CC2)c2cccc3c2N1CCC3` as the molecule, how does the inhibition read?
**A.** The inhibition was active: 63.7%.

**Q.** Which inhibition does the source give for `CCC12CN3CC(CC)(CN(C1)C3c1ccccn1)C2=O` (configuration not stated) here?
**A.** Its inhibition is 4.54%.

**Q.** Which inhibition does the source give for `O=c1cc(C(F)(F)F)c2cc3c4c(c2o1)CCCN4CCC3` here?
**A.** Its inhibition is active: 78.5%.

**Q.** How did the inhibition turn out when `CC(=O)N1CC(=O)Nc2ccc(F)cc2C1c1ccccc1` (configuration not stated) was run?
**A.** Its inhibition is -11.2%.

**Q.** With `Cc1cc(C)cc(-n2c(=O)[nH]c3ccccc3c2=O)c1` as the molecule, how does the inhibition read?
**A.** The inhibition was -3.27%.

**Q.** With `O=[N+]([O-])c1cccc(CN2CCN(Cc3ccc(Br)cc3)CC2)c1` as the molecule, how does the inhibition read?
**A.** Its inhibition is active: 89.7%.

**Q.** Which inhibition does the source give for `COc1cc2occc2c2oc(=O)ccc12` here?
**A.** The inhibition was active: 32.6%.

**Q.** Which inhibition does the source give for `COc1cccc(CNCCc2c[nH]c3ccccc23)c1OC` here?
**A.** Its inhibition is active: 52.2%.

**Q.** With `CCCSc1nc2ccccc2c(=O)n1-c1ccccc1OC` as the molecule, how does the inhibition read?
**A.** The inhibition was -8.52%.

**Q.** Which inhibition does the source give for `Cc1cc(O)c(CN2CC=C(c3ccccc3)CC2)cc1C(C)C` here?
**A.** The inhibition was active: 74.6%.

**Q.** For `Cc1c(C(c2ccc(F)cc2)c2c(O)c3ccccc3oc2=O)c(=O)n(-c2ccccc2)n1C` (configuration not stated), which inhibition is on record?
**A.** Its inhibition is -12.8%.

**Q.** For `O=C(COc1ccc(Cl)cc1)Nc1ccc(Cl)cc1C(=O)c1ccccc1`, which inhibition is on record?
**A.** Its inhibition is -7.42%.

**Q.** With `Cc1nnc(NC(=O)c2cccn(Cc3ccccc3F)c2=O)s1` as the molecule, how does the inhibition read?
**A.** The inhibition was 8.69%.

**Q.** How did the inhibition turn out when `O=C1CC(c2c(F)cccc2Cl)c2c(c3ccccc3oc2=O)O1` (configuration not stated) was run?
**A.** The inhibition was 9.69%.

**Q.** Which inhibition does the source give for `CC(C)(C)c1ccc(C(=O)Nc2ccc(Cl)cc2C(=O)c2ccccc2)cc1` here?
**A.** Its inhibition is 1.24%.

**Q.** `COc1ccc(CN2CCN(c3ccccc3)CC2)c(C)c1C` was tested. Which inhibition did it give?
**A.** The inhibition was active: 65.2%.

**Q.** For `CN1CCCC(C(=O)c2ccccc2)C1` (configuration not stated), which inhibition is on record?
**A.** The inhibition was active: 30.2%.

**Q.** How did the inhibition turn out when `O=C(CCCN1CCC(n2c(=O)[nH]c3ccccc32)CC1)c1ccc(F)cc1` was run?
**A.** The inhibition was active: 76.6%.

**Q.** With `O=C(Nc1cc(C(F)(F)F)cc(C(F)(F)F)c1)c1cccn(Cc2ccccc2Cl)c1=O` as the molecule, how does the inhibition read?
**A.** Its inhibition is 9.66%.
